Measured values from PubChem BioAssay AID1460 (National Center for Advancing Translational Sciences (NCATS), 2008).
In all, about 270,000 compounds went through this assay and about 5,800 (2.1%) were called active. Inconclusive means that the source gave no clear call. Such entries were picked first, then a sample of the others. Calls come from the whole dose curve; as a rule, active = well fitted inhibition curve with a large enough effect; inconclusive = small, poorly fitted or top-dose-only effect; inactive = flat fitted curve, though single readings scatter. Potencies beside an inconclusive call are fits to weak or partial responses and may not hold up. More than one record can exist for a structure, and the calls need not agree.
% is set by controls: 0 for no effect and ±100 for the full control effect; potency is the fitted concentration of half-maximal effect; tags give direction and shape of the fitted curve.
Note: nearly all actives have a fitted effect of over 55% in size.

These compounds were tested against Microtubule-associated protein tau (Homo sapiens) (UniProt P10636) (assay: qHTS for Inhibitors of Tau Fibril Formation, Thioflavin T Binding). Settings: recombinant tau K18 P301L (four-repeat tau fragment), heparin-induced fibrillization, ThT fluorescence; series mostly up to 57.4 µM.
Chain of UniProt P10636 (P10636 whole entry, looked up, the tested form may be a part): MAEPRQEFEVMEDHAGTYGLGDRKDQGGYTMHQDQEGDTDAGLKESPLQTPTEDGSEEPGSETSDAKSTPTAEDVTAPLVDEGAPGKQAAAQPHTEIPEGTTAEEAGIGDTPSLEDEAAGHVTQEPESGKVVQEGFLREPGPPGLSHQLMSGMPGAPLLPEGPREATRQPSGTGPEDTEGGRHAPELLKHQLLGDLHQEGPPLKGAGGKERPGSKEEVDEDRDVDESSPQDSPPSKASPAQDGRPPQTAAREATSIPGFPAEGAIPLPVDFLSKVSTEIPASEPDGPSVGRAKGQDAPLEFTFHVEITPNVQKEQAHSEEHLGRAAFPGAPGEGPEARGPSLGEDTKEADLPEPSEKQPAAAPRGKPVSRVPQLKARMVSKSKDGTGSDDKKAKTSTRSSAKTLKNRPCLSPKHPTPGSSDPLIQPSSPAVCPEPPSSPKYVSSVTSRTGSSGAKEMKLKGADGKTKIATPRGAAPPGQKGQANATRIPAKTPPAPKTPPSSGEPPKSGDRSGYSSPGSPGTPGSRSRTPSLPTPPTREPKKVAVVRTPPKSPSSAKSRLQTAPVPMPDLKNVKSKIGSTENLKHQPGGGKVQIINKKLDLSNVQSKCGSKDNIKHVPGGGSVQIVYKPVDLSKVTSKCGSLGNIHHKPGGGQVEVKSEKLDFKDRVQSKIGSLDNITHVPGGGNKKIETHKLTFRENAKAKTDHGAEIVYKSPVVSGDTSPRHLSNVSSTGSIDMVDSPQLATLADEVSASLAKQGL
In short: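 In this qHTS, human K18 P301L tau is incubated with compound and heparin for 6 hr at 37 C, and Thioflavin T fluorescence then reports fibril load.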
In the case of `CCCCC1=CC2=C(c3ccco3)C(=O)C(C)(OC(=O)c3ccc(OC)cc3)C(=O)C2=CN1Cc1ccccc1` (stereo not drawn), the Potency is reported as active: 12.6 µM and the activity, negative = inhibition is reported as inactive: -7.59% [at 11.5 µM].
`CCc1ccc(CNC(=O)c2cc(=O)[nH]c3ccc(S(=O)(=O)N4CCCCC4)cc23)cc1` was tested, and the Potency was “inactive”.
For `COc1ccc(CC(=O)Nc2ccc3nc(Nc4ccc(OC)cc4)cc(C)c3c2)cc1`, the Potency was inconclusive: 2.51 µM [inhibitor, full curve].
`COc1ccc(Nc2nc3ccccc3nc2NS(=O)(=O)c2cccs2)cc1` was tested, and the Potency was active: 14.1 µM.
In the case of `O=C(NCc1ccccc1Cl)c1ccc2c(c1)NC(=O)C(CS(=O)(=O)Cc1ccc(F)cc1Cl)N2` (stereo not drawn), the Potency is reported as inconclusive: 25.1 µM [inhibitor, partial curve, poor fit].
For `COc1cc(OC)c(Nc2nc3ccccc3c3nncn23)cc1Cl`, the Potency was inconclusive: 10 µM [inhibitor, partial curve, poor fit].
In the case of `CCNc1nc(NCC)nc(SCCOC(=O)COc2ccc(Cl)cc2Cl)n1`, the Potency is reported as inconclusive: 25.1 µM [inhibitor, partial curve].
In the case of `O=C(NCCc1ccc(Cl)cc1)c1cnc2sc(N3CCOCC3)nn2c1=O`, the Potency is reported as “inactive”.
For `COc1ccc(/C=C\c2onc(C)c2S(=O)(=O)N2CCC(C(=O)Nc3ccc(F)cc3F)CC2)cc1`, the Potency was “inactive”.
`CC(C)(C)c1ccc(C(=O)CSc2nc3ccccc3c(=O)[nH]2)cc1` was tested, and the Potency was “inactive”.
In the case of `COc1ccc(CCNc2oc(/C=C/c3cc(OC)c(OC)c(OC)c3)nc2C#N)cc1OC`, the Potency is reported as inconclusive: 12.6 µM [inhibitor, partial curve].
For `COc1ccc(S(=O)(=O)NCC(c2cccnc2)N2CCN(c3ccccc3)CC2)cc1C` (stereo not drawn), the Potency was “inactive”.
For `COc1ccc(OC)c(CCNC(=O)CS(=O)(=O)Cc2nc(-c3cccc(Cl)c3)oc2C)c1`, the Potency was inconclusive: 28.2 µM [inhibitor, partial curve].
With `COC(=O)c1ccc(CSc2ncnc3c2nnn3-c2ccc(OC)cc2)o1` the Potency was inconclusive: 8.91 µM [inhibitor, partial curve].
For `O=C(CSc1nc2cc(C(=O)NC3CCCC3)ccc2c(=O)n1CC1CCCO1)c1cccc(Cl)c1` (stereo not drawn), the Potency was “inactive”.
With `CC(/C=N/NC(=O)c1cc(-c2ccncc2)nc2ccccc12)=C\c1ccco1` the Potency was inconclusive: 20 µM [inhibitor, single point].
For `Cc1ccccc1C(=O)NCCNc1ccc([N+](=O)[O-])cc1`, the Potency was inconclusive: 28.2 µM [inhibitor, single point].
With `Cc1nc(N)sc1N=Nc1c(C)n(C)n(-c2ccccc2)c1=O` the Potency was inconclusive: 28.2 µM [inhibitor, partial curve, poor fit].
In the case of `N#Cc1ccc(C(=O)Nc2ccc([N+](=O)[O-])cc2)c(F)c1`, the Potency is reported as “inactive”.
In the case of `COC(=O)c1c(NC(=O)C(C)Oc2ccc(Cl)c(C)c2)sc(C)c1C` (stereo not drawn), the Potency is reported as inconclusive: 15.8 µM [inhibitor, single point].
In the case of `Cc1ccc(-c2cc(C(=O)Nc3cc([N+](=O)[O-])ccc3C)no2)cc1F`, the Potency is reported as inconclusive: 14.1 µM [inhibitor, partial curve].
In the case of `COC(=O)C1=C(O)/C(=C\c2ccc(O)c(OC)c2)N=C1C`, the Potency is reported as inconclusive: 25.1 µM [inhibitor, partial curve].
In the case of `Cn1cccc1/C=C(\C#N)C(N)=S`, the Potency is reported as inconclusive: 31.6 µM [inhibitor, partial curve].
In the case of `Cc1ccc(Sc2c(C)nn(-c3ccccc3)c2OC(=O)C(C)(C)C)cc1`, the Potency is reported as inconclusive: 20 µM [inhibitor, partial curve].
In the case of `Cc1cc(C)cc(OCc2ccc(C(=O)N3N=C(C(F)F)CC3(O)C(F)F)o2)c1` (stereo not drawn), the Potency is reported as inconclusive: 28.2 µM [inhibitor, partial curve].
For `Oc1[nH]c2ccccc2c1N=NC(=S)N1CCOCC1`, the Potency was active: 8.91 µM.
For `Cc1cc(N(CCO)CCO)nc(-n2nc(C)cc2C)n1`, the Potency was “inactive”.
With `CCC(C)NC(=O)c1n[nH]c(=O)c2ccccc12` (stereo not drawn) the Potency was “inactive”.
With `CC(=O)N1CCN(c2ccc(NCc3ccc(C)s3)cc2)CC1` the Potency was inconclusive: 20 µM [inhibitor, partial curve].
`c1ccc(Nc2ccnc(Nc3ccccc3)n2)cc1` was tested, and the Potency was “inactive”.
`NC(=O)c1ccccc1N/C=C/C(=O)c1ccc(Cl)cc1Cl` was tested, and the Potency was inconclusive: 22.4 µM [inhibitor, partial curve].
`Cc1c(CN2CCCC(C)C2)c(O)n(CCO)c(=O)c1C#N` (stereo not drawn) was tested, and the Potency was “inactive”.
For `CCOC(=O)c1cc(-c2ccc(OC)cc2)n(CCC(=O)NCc2ccc(OC)cc2)c1C`, the Potency was “inactive”.
For `Cc1ccc(NC(=S)N2CCC(c3ccc(C)cc3)C2)cc1` (stereo not drawn), the Potency was “inactive”.
With `COc1ccc(C)cc1NC(=O)CCC(=O)Nc1ccc2nc(N3CCN(C)CC3)cc(C)c2c1` the Potency was inconclusive: 35.5 µM [inhibitor, single point].
With `N#C/C(=N/Nc1ccc(OC(F)(F)F)cc1)C(N)=S` the Potency was active: 6.31 µM.
In the case of `Cc1[nH]nc(SCC(=O)N2CCC(C)CC2)c1[N+](=O)[O-]`, the Potency is reported as inconclusive: 20 µM [inhibitor, single point].
`COc1ccc(Nc2nc(C(=O)N(CCO)Cc3ccccc3)cs2)cc1` was tested, and the Potency was inconclusive: 35.5 µM [inhibitor, partial curve].
In the case of `Cc1cccc(Nc2n[nH]c(C)c2[N+](=O)[O-])c1`, the Potency is reported as “inactive”.
`Cc1cc2c(s1)c1cnn(CC(=O)NCCc3ccccc3)c(=O)c1n2C` was tested, and the Potency was inconclusive: 7.08 µM [inhibitor, full curve, poor fit].
For `CC(=O)OC[C@@H]1O[C@@H](O/N=C2/C[C@@H](O)[C@@H](O)[C@@H]3[C@@H]4C(=O)N(C(C)(C)C)C(=O)[C@H]4CC[C@H]23)[C@H](OC(C)=O)[C@H](OC(C)=O)[C@@H]1OC(C)=O`, the Potency was inconclusive: 7.08 µM [inhibitor, single point].
For `O=C(C1CCCO1)N1CCN(Cc2c(O)ccc3ccccc23)CC1` (stereo not drawn), the Potency was inconclusive: 5.01 µM [inhibitor, full curve].
In the case of `Cn1c(SCC(=O)Nc2ccccc2)nnc1-c1ccc2nonc2c1`, the Potency is reported as “inactive”.
`Cc1ccc(C)c(NC(=O)CN(C)S(=O)(=O)c2ccc3c(c2)CCC(=O)N3)c1` was tested, and the Potency was “inactive”.
For `O=c1[nH]c2cc3c(cc2cc1CN(Cc1nnnn1C1CCCC1)C1CCCC1)OCCO3`, the Potency was inconclusive: 28.2 µM [inhibitor, single point].
With `CCOC(=O)c1cc(-c2csc(COc3ccccc3)n2)on1` the Potency was inconclusive: 3.55 µM [inhibitor, full curve].
`N#Cc1c[nH]n2c(=O)c3c(nc12)CCC3` was tested, and the Potency was “inactive”.
In the case of `C[n+]1c2n(c3ccccc31)N=C(c1cc(C(C)(C)C)c(O)c(C(C)(C)C)c1)CS2`, the Potency is reported as inconclusive: 15.8 µM [inhibitor, single point].
`COc1ccccc1CNC(=O)CCC1N=C2c3ccccc3N=C(SCC(=O)Nc3ccc(N(C)C)cc3)N2C1=O` (stereo not drawn) was tested, and the Potency was inconclusive: 28.2 µM [inhibitor, single point].
`COc1ccc(S(=O)(=O)N2CCCN(CC(=O)Nc3ccc(OC)cc3OC)CC2)cc1` was tested, and the Potency was “inactive”.
With `CCCc1nnc2n1N=C(c1ccc([N+](=O)[O-])cc1)CS2` the Potency was “inactive”.
In the case of `Cc1nc2ccccn2c1C(=O)N/N=C/c1ccc([N+](=O)[O-])o1`, the Potency is reported as inconclusive: 28.2 µM [inhibitor, partial curve].
In the case of `CCSc1cc(C2C(C#N)=C(N)OC(C)=C2C(=O)OC)c(C)o1` (stereo not drawn), the Potency is reported as “inactive”.
For `COc1cccc(-c2ccc3c(N)c(C(=O)Nc4cc(C(F)(F)F)ccc4OC)sc3n2)c1`, the Potency was inconclusive: 5.62 µM [inhibitor, partial curve, poor fit].
In the case of `CCOC(=O)c1sc(NC(=O)C2c3ccccc3Oc3ccccc32)c(C#N)c1C`, the Potency is reported as inconclusive: 25.1 µM [inhibitor, single point].
`COC/C=C/C1=CC2=CC(=O)C(C)(OC(=O)c3cnc4ccccc4n3)C(=O)C2=CN1CCN1CCOCC1` (stereo not drawn) was tested, and the Potency was active: 15.8 µM.
With `CCOC(=O)c1c(C)[nH]c(C)c1S(=O)(=O)N1CCCC(C(=O)NCc2cccc(OC)c2)C1` (stereo not drawn) the Potency was “inactive”.
For `CC(C)c1ccc(C2CC(=O)N3CN(Cc4ccco4)CSC3=C2C#N)cc1` (stereo not drawn), the Potency was active: 22.4 µM.
In the case of `O=C(Nc1ccncc1)c1sc2ccccc2c1Cl`, the Potency is reported as inconclusive: 3.55 µM [inhibitor, full curve].
In the case of `Cc1c(C(=O)N2CCOCC2)[nH]c2ccc(OCc3ccccc3)cc12`, the Potency is reported as inconclusive: 39.8 µM [inhibitor, single point].
`Cc1oc(-c2cccc(Cl)c2)nc1CN1CCCC(C(=O)NC(C)c2ccc3c(c2)OCCO3)C1` (stereo not drawn) was tested, and the Potency was inconclusive: 20 µM [inhibitor, partial curve, poor fit].
For `CC(=O)C1=C(O)C(=O)N(CCc2c[nH]c3ccccc23)C1c1ccc(O)cc1` (stereo not drawn), the Potency was inconclusive: 28.2 µM [inhibitor, partial curve, poor fit].
In the case of `COc1cccc(N2CCN(C(=O)c3cc4c(=O)oc5ccc(C)cc5c4s3)CC2)c1`, the Potency is reported as inconclusive: 7.94 µM [inhibitor, partial curve, poor fit].
With `CCOc1cc(/C=C2\SC(=S)N(NC(=O)c3cccnc3)C2=O)ccc1O` the Potency was inconclusive: 11.2 µM [inhibitor, partial curve].
In the case of `Cc1cc(/C=N/Nc2nc(N)ncc2[N+](=O)[O-])c(C)n1-c1cccc(C(F)(F)F)c1`, the Potency is reported as inconclusive: 4.47 µM [inhibitor, partial curve].
In the case of `COc1ccc(NC(=O)c2cc3c(=O)n(C)c4ccccc4c3n2C)cc1OC`, the Potency is reported as inconclusive: 2.24 µM [inhibitor, full curve].
For `Cc1nc2nc(SCC(=O)NC3CCCCC3)nn2c(C)c1Cc1ccccc1Cl`, the Potency was inconclusive: 17.8 µM [inhibitor, partial curve].
